Structures can show the parent of a compound that is named as a salt. This is one part of the list. Most values come without repeats; read them as rough.

The results in this text go back to the supplement of paper PMC8047034.

This assay has as its system OVCAR4. The experiment in a line: log2 surviving fraction (library drug vs vehicle, or drug + carboplatin vs carboplatin alone; relative to plate median); ovarian cancer lines: OVCAR4 is platinum-sensitive and Ov4Carbo platinum-resistant; higher = more cell survival. The following applies: library drug concentration 10 µM; 7 days; carboplatin co-treatment 0 µM.
For `N=C(N)N` [Guanidine HCl], the log2 surviving fraction is -0.19. On to `C[C@@H]1O[C@@H]1P(=O)(O)O` [Fosfomycin Tromethamine], for which the log2 surviving fraction is -3.77.

`CC[C@H]1OC(=O)[C@H](C)[C@@H](O[C@H]2C[C@@](C)(OC)[C@@H](O)[C@H](C)O2)[C@H](C)[C@@H](O[C@@H]2O[C@H](C)C[C@H](N(C)C)[C@H]2O)[C@](C)(O)C[C@@H](C)[C@@H]2N[C@@H](COCCOC)O[C@H]([C@H]2C)[C@]1(C)O` [Dirithromycin]: the log2 surviving fraction was -0.0909.

For `OC[C@@H](O)[C@@H](O)[C@H](O)[C@H](O)CO` [D-Mannitol (Osmitrol)], the log2 surviving fraction was -0.668. To `CCCCNC(=O)NS(=O)(=O)c1ccc(C)cc1` [Tolbutamide] belongs 0.833; to `CC(C)[N+]1(C)[C@@H]2CC[C@H]1C[C@@H](OC(=O)C(CO)c1ccccc1)C2` (stereo not given in full) [Ipratropium bromide], -8.96; to `CN1C2CCC1CC(OC(=O)C(O)c1ccccc1)C2` (stereo not given) [Homatropine Bromide], 0.601.

For `Cc1cc(C(C#N)c2ccc(Cl)cc2)c(Cl)cc1NC(=O)c1cc(I)cc(I)c1O` (stereo not given) [Closantel Sodium], the log2 surviving fraction is -0.0218.

Take `C=C[C@]1(C)C[C@@H](OC(=O)CS[C@@H]2C[C@H]3CC[C@@H](C2)N3C)[C@]2(C)[C@H](C)CC[C@]3(CCC(=O)[C@H]32)[C@@H](C)[C@@H]1O` [Retapamulin]: the log2 surviving fraction is -1.21.

For the compound `CC(=O)O[C@@]12CO[C@@H]1C[C@@H](O)[C@@]1(C)C(=O)[C@H](O)C3=C(C)[C@@H](O)C[C@@](O)([C@@H](OC(=O)c4ccccc4)[C@H]21)C3(C)C` [10-DAB (10-Deacetylbaccatin)], the log2 surviving fraction is -5.19. The same measure for `CN(C)CCN(Cc1ccccc1)c1ccccn1` [Tripelennamine HCl]: 0.941. In the case of `COC1=C(OC)C(=O)C(CCCCCCCCCCO)=C(C)C1=O` [Idebenone], the log2 surviving fraction was -0.997.

`CC(=O)[C@H]1CC[C@H]2[C@@H]3CC=C4C[C@@H](O)CC[C@]4(C)[C@H]3CC[C@]12C` [Pregnenolone]: the log2 surviving fraction is 1.59.

With `O=C1[C@H](CC[C@H](O)c2ccc(F)cc2)[C@@H](c2ccc(O)cc2)N1c1ccc(F)cc1` [Ezetimibe (Zetia)], the log2 surviving fraction is -0.154. The same measure for `C[C@@H]1CC(=O)NN=C1c1ccc(NN=C(C#N)C#N)cc1` [Levosimendan]: -0.836; for `CN1CCN(c2c(F)cc3c(=O)c(C(=O)O)cn4c3c2OCN4C)CC1` [Marbofloxacin]: 0.277; for `CN1CCN(CCCN2c3ccccc3Sc3ccc(Cl)cc32)CC1` [Prochlorperazine Dimaleate]: -2.94.

Take `Cc1cc2c(s1)Nc1ccccc1N=C2N1CCN(C)CC1` [Olanzapine (Zyprexa)]: the log2 surviving fraction stood at 0.35.

Regarding `O=c1[nH]c2ccccc2n1CCCN1CCC(n2c(=O)[nH]c3cc(Cl)ccc32)CC1` [Domperidone (Motilium)], the log2 surviving fraction worked out at 0.842.

On to `Cc1c(Cl)cccc1Nc1ccccc1C(=O)O` [Tolfenamic acid], for which the log2 surviving fraction is -0.0988. The same measure for `[I-].[K+]` [Potassium iodide]: 0.666. To `C[C@H](N)[C@H](O)c1cccc(O)c1` [Metaraminol Bitartrate] belongs 2.41; to `CCC[C@H](NC(=O)[C@@H]1[C@H]2CCC[C@H]2CN1C(=O)[C@@H](NC(=O)[C@@H](NC(=O)c1cnccn1)C1CCCCC1)C(C)(C)C)C(=O)C(=O)NC1CC1` [Telaprevir (VX-950)], -0.72. The same measure for `Nc1nc2c(ncn2COCCO)c(=O)[nH]1` [Acyclovir (Aciclovir)]: 0.291. Consider `COc1ccccc1OCCNCC(O)COc1cccc2[nH]c3ccccc3c12` (stereo not given) [Carvedilol], for which the log2 surviving fraction was -1.21. Regarding `CCCCC(=O)O[C@]1(C(=O)CO)[C@@H](C)C[C@H]2[C@@H]3CCC4=CC(=O)C=C[C@]4(C)[C@@]3(F)[C@@H](O)C[C@@]21C` [Betamethasone valerate (Betnovate)], the log2 surviving fraction is 0.556. On to `NC(=O)c1cnccn1` [Pyrazinamide (Pyrazinoic acid amide)], for which the log2 surviving fraction is -0.233. On to `C[N+]1(C)CCC(=C(c2ccccc2)c2ccccc2)CC1` [Diphemanil methylsulfate], for which the log2 surviving fraction was -0.0271. With `CNC(=O)Oc1ccc2c(c1)[C@]1(C)CCN(C)[C@@H]1N2C` [Physostigmine Hemisulfate Salt], the log2 surviving fraction is -0.629. The same measure for `COc1ccc2c(c1)c(CC(=O)O)c(C)n2C(=O)c1ccc(Cl)cc1` [Indomethacin (Indocid, Indocin)]: 0.329; for `Cc1c(C(=O)NN2CCCCC2)nn(-c2ccc(Cl)cc2Cl)c1-c1ccc(Cl)cc1`: -2.81. The same measure for `CN(C)CCCN1c2ccccc2CCc2ccccc21` [Imipramine HCl]: -0.561.

Take `NC[C@H]1CC[C@H](C(=O)O)CC1` [Tranexamic acid (Transamin)]: the log2 surviving fraction was 0.383. The same measure for `CN1CC(=O)NC1=N` [Creatinine]: 0.546.

As for `Nc1[nH]cnc2ncnc1-2` [Adenine], the log2 surviving fraction stood at 0.889.

As for `CC(=O)CCCCn1c(=O)c2c(ncn2C)n(C)c1=O` [Pentoxifylline], the log2 surviving fraction was -0.0884.

Consider `CCN1CCN(c2cc3c(cc2F)c(=O)c(C(=O)O)cn3C2CC2)CC1` [Enrofloxacin], for which the log2 surviving fraction worked out at 0.99. For `CN1CCc2cc3c(cc2C1O)OCO3` (stereo not given) [Hydrastinine HCl], the log2 surviving fraction came to 0.413. To `Cc1cn([C@@H]2C[C@@H](O)[C@H](CO)O2)c(=O)[nH]c1=O` [Telbivudine (Sebivo, Tyzeka)] belongs 0.718; to `O=C1Cc2cc(CCN3CCN(c4nsc5ccccc45)CC3)c(Cl)cc2N1` [Ziprasidone hydrochloride], -0.112.
